Data reported in FireProtDB (doi:10.1021/bi0507940).
Values joined by “and” are separate entries in the source; they are usually repeats but may differ in a detail not shown here. Identical values can stand only once.

Conditions: Homo sapiens; pH 7.4; Thermal; DSC; Phosphate 7 mM; reversible: yes

Insulin wild type (chain not printed)
unfolding enthalpy (calorimetric): 94.8 kJ/mol and 101 kJ/mol and 144 kJ/mol | unfolding enthalpy (van 't Hoff): 207 kJ/mol
